Results from PubChem BioAssay (NCATS).
Inconclusive results, whose numbers are uncertain, are shown with a selection of clear calls. Where the call is inconclusive, the potency comes from a doubtful curve fit. Calls of active or inactive are those of the source. Calls come from the whole dose curve; as a rule, active = well fitted cell-killing curve with a large enough effect; inconclusive = small, poorly fitted or top-dose-only effect, or effect the other way; inactive = no such curve, though single readings can be large or run the other way.

Experiment: Viability qHTS for spleen associated tyrosine kinase inhibitor (SYKi) naive MV4-11 cells (AID 1963823); note: nearly all actives have a fitted effect of over 40% in size
Conditions: MV4-11 AML viability, CellTiter-Glo luminescence, 72 h; viability (% of control): at 45 µM (top of the series)
Procedure, shortened: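 Luminescence from CellTiter-Glo, developed 10 min at room temperature, gave viability of MV4-11 cells never exposed to SYK inhibitor. Cells (500/well) had been incubated with compounds for 72 hr under standard culture conditions.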
Potency is the fitted concentration of half-maximal effect; tags give direction and shape of the fitted curve.

SMILES | Potency | viability (% of control)
C[C@@H]1C[C@H](O[C@@H]2O[C@H](CO[C@@H]3OC[C@](O)(CO)[C@H]3O)[C@@H](O)[C@H](O)[C@H]2O)CC(C)(C)[C@H]1/C=C/[C@@H](C)O | inconclusive: 7.09 µM [cytotoxic, partial curve, poor fit] | 
COc1cc(O)c2c(c1)C1(OC2=O)C(C)=CC(=O)C1O (centres undefined) | inconclusive: 23.1 µM [cytotoxic, single point] | 
COC(=O)C12CCC(C)C(C)C1C1=CCC3C4(C)CCC(OC(C)=O)C(C)(C)C4CCC3(C)C1(C)CC2 (centres undefined) | inactive | 
C=C(C)C(=O)OC1[C@@H]2C(=C)C(=O)O[C@@H]2C[C@@H](C)[C@@H]2C=CC(=O)[C@@]12C (some centres undefined) | active: 2.27 µM | 
CC(C(=O)O)c1cccc(Oc2ccccc2)c1 (centres undefined) | inactive | 
CN(C)c1nc(NC2CCC(NC(=O)c3ccc(F)c(F)c3)CC2)nc2ccccc12 (centres undefined) | inconclusive: 1.16 µM [cytotoxic, full curve] | 
COc1cccc(-c2ccc([C@@H](Oc3cc(-c4ccc(C[C@H](N)C(=O)O)cc4)nc(N)n3)C(F)(F)F)cc2)c1 | inconclusive: 18.4 µM [cytotoxic, partial curve] | 
CC1CC(C(O)C(C)(C)O)OC2CC3(C)C4(C)CCC5C(C)(C)C(=O)CCC5(C)C4CCC3(O)C12O (centres undefined) | inconclusive: 14.2 µM [cytotoxic, single point] | 
OC[C@H]1O[C@@H](OC[C@H]2O[C@@H](OCc3ccccc3)[C@H](O)[C@@H](O)[C@@H]2O)[C@H](O)[C@@H](O)[C@@H]1O | inactive | 
CC(=O)Nc1nc(C)c(-c2nc(N3CCCC(O)C3)no2)s1 (centres undefined) | inconclusive: 11.6 µM [cytotoxic, partial curve] | 
CCOC(=O)c1sc(NC(=O)[C@H](C(C)C)n2c(=O)[nH]c3ccccc3c2=O)nc1C | inconclusive: 25.9 µM [cytotoxic, single point] | 
O=C(Cn1c2ccccc2c2nc3n(c(=O)c21)CCS3)N1CCCC1 | inactive | 
CC(=O)N[C@H]1CSSC[C@@H](C(N)=O)NC(=O)[C@H](C(C)C)NC(=O)[C@H](C)NC(=O)[C@H](Cc2cnc[nH]2)NC1=O | inactive | 
NCCNCCNCCNCCN |  | inactive: 121% [at 9.25 µM]
COC(=O)c1cc(Cl)ccc1OC | inactive | 
Cc1[nH]cnc1-c1ccc(Cl)cc1 | inconclusive: 0.422 µM [rising, full curve, poor fit] | 
Fc1ccc(C2CCNC[C@H]2COc2ccc3c(c2)OCO3)cc1 (some centres undefined) | active: 16.4 µM | 
O=C(O)c1cc(O[C@@H]2O[C@H](CO)[C@@H](O)[C@H](O)[C@H]2O)ccc1O | inactive | 
CC(N)CCCC(C)(C)O (centres undefined) | inconclusive: 0.531 µM [rising, partial curve] | 
COc1ccc(-c2ccc3c(N4CCOCC4C)nc(N4CCOCC4C)nc3n2)cc1CO (centres undefined) | inconclusive: 0.0651 µM [cytotoxic, full curve] | 
N=C(N)N1CCc2ccccc2C1 |  | inactive: 81.1% [at 4.97 µM]
CC(=O)O[C@@H]1[C@@H](OC(C)=O)[C@H](C)O[C@@H](O[C@H]2[C@@H]3C=CO[C@@H](O[C@@H]4O[C@H](CO)[C@@H](O)[C@H](O)[C@H]4O)[C@@H]3[C@@]3(CO)O[C@@H]23)[C@@H]1OC(=O)/C=C/c1ccccc1 | inconclusive: 5.44 µM [cytotoxic, single point] | 

SMILES | Potency | viability (% of control)
COc1cc2ncnc(Nc3cccc(O)c3)c2cc1OC | active: 0.411 µM | 
CC(C)CCCCC(=O)N[C@@H](CO)C(=O)N[C@@H](CC(C)C)C(=O)[C@@]1(CO)CO1 | inconclusive: 29.1 µM [cytotoxic, single point] | 
NCC(=O)Nc1cncc(-c2nn3c(=O)cc(N4CCNCC4)nc3s2)c1 | inconclusive: 11.8 µM [cytotoxic, single point] | 
Oc1ccc(-c2cnc3ccc(NCc4ccco4)nn23)cc1 | inconclusive: 0.0731 µM [cytotoxic, full curve] | 
CN(C)C/C=C/C(=O)Nc1cccc(C(=O)Nc2ccc(Nc3nccc(-c4cccnc4)n3)cc2)c1 | active: 0.184 µM | 
C=C1C(=O)OC2/C=C(\COC(C)=O)CC/C=C(\C=O)CC(OC(=O)C(C)CC)C12 (centres undefined) | active: 1.59 µM | 
COc1cc(COC2OC(CO)C(O)C(O)C2O)cc(OC)c1O (centres undefined) | inactive | 
CC(Cc1ccccc1)(NC(=O)CN)c1ccccc1 (centres undefined) | inactive | 
COc1cc(/C=C2\CCCN([C@@H](C)c3ccc(F)cc3)C2=O)ccc1-n1cnc(C)c1 | active: 9.2 µM | 
O=C(/C=C/c1nc2ccccc2[nH]1)c1c(-c2ccccc2)c2cc(Cl)ccc2[nH]c1=O | inconclusive: 0.461 µM [cytotoxic, full curve] | 
C[C@@H]1C[C@@H](O)[C@@]2(CO)C(CO)=CCC[C@@H]2[C@@]12C[C@@H](c1ccoc1)OC2=O | inconclusive: 3.21 µM [cytotoxic, full curve, poor fit] | 
CCn1cc(C2=NOC(C(=O)Nc3c(C)n(C)n(-c4ccccc4)c3=O)C2)c(C)n1 (centres undefined) | inactive | 
CCCOC(c1cc2nccc(C(=O)O)c2[nH]1)c1ccccc1Cl (centres undefined) | inactive | 
C/C(=C\CO[C@@H]1O[C@H](CO[C@H]2OC[C@](O)(CO)[C@H]2O)[C@@H](O)[C@H](O)[C@H]1O)C(C)(C)O | inactive | 
COc1cc(N)c(Cl)cc1C(=O)NC[C@@H]1CCN2CCC[C@@H]12 | inactive | 
O=C1C(Cc2ccc(O)cc2)N2C(=O)CCN(C(=O)NCc3ccccc3)C2CN1Cc1cccc2ccccc12 (centres undefined) | active: 1.46 µM | 
CC(=O)O[C@@H]1[C@H](OC(C)=O)C[C@@]2(C)C(CC[C@@H](C)[C@]23Cc2c(O)cc4c(c2O3)CN([C@@H](CCC(=O)O)C(=O)O)C4=O)C1(C)C (some centres undefined) | inactive | 
CC(C)S(=O)(=O)NC[C@H](C)c1ccc(-c2ccc(CCNS(C)(=O)=O)cc2)cc1 | inconclusive: 2.06 µM [cytotoxic, full curve] | 
NC(=O)C1=CC2C3C=CC2C(OC3=O)O1 (centres undefined) | inconclusive: 42.1 µM [cytotoxic, single point] | 
CN1CC[C@@H](c2c(O)cc(O)c3c(=O)cc(-c4ccc(C(F)(F)F)cc4Cl)oc23)[C@@H]1CO | active: 16.4 µM | 
CC1=C2CC(=O)C(C)CC/C=C(\C)CC2OC1=O (centres undefined) | inactive | 
CCOC(=O)C(CCc1ccccc1)NC1CSC(c2cccs2)CN(CC(=O)O)C1=O (centres undefined) | active: 25.9 µM | 

SMILES | Potency | viability (% of control)
CC1(C)CC[C@]2(C(=O)O[C@@H]3O[C@H](CO)[C@@H](O)[C@H](O)[C@H]3O)CC[C@]3(C)C(=CCC4[C@@]5(C)CC[C@H](OC6OC(C(=O)O)C(OC7OC(CO)C(O)C(O)C7O)C(O)C6O)C(C)(C)C5CC[C@]43C)C2C1 (some centres undefined) |  | inactive: 86.6% [at 9.25 µM]
COc1cc([C@H]2O[C@H](c3cc(OC)c4c(c3)OCO4)[C@H](C)[C@H]2C)cc(OC)c1OC | inconclusive: 0.563 µM [cytotoxic, full curve] | 
C=C1C(=O)O[C@@H]2C[C@@]3(C)CCCC(=C)[C@]3(O)C[C@H]12 | active: 5.8 µM | 
COc1ccc(/C=C/C(=O)O[C@@H]2[C@@H](O)[C@H](C)O[C@@H](OC3C4C=COC(O[C@@H]5O[C@H](CO)[C@@H](O)[C@H](O)[C@H]5O)C4C4(CO)OC34)[C@@H]2O)cc1OC (some centres undefined) | inactive | 
C=C1C(=O)OC2C1CCC1(C)C(O)CC=C(C)C21 (centres undefined) | active: 10.3 µM | 
CC(=O)OC1CC2C(C)(C)C(=O)C=CC2(C)C2CC(=O)C3=C(CCC3C3=CC(O)OC3=O)C12C (centres undefined) | inconclusive: 7.96 µM [cytotoxic, single point] | 
N#Cc1ccc(O[C@@H]2c3ccccc3C[C@H]2N2CCC[C@@H](N)C2)c(Cl)c1 | inconclusive: 8.2 µM [cytotoxic, partial curve] | 
CC(C)COc1ccc(CNC(=O)N(Cc2ccc(F)cc2)C2CCN(C)CC2)cc1 | active: 18.4 µM | 
CN(c1ccccc1CNc1nc(Nc2ccc3c(c2)CC(=O)N3)ncc1C(F)(F)F)S(C)(=O)=O | active: 0.291 µM | 
Cc1cc(NS(=O)(=O)c2ccc(N)cc2)nc(C)n1 | inactive | 
C=C1C2=CC(O)C(C)C1(C)CC/C(C)=C/CCC1(C)OC1C2=O (centres undefined) | inconclusive: 11.4 µM [cytotoxic, single point] | 
COc1cc(CCc2ccc(OCC=C(C)C)cc2)cc(OC)c1OC | active: 14.3 µM | 
CN1CCN(S(=O)(=O)c2ccc(-c3cnc(N)c(C(=O)Nc4cccnc4)n3)cc2)CC1 | active: 0.893 µM | 
CO[C@H]1O[C@@H]2O[C@@]3(C)CCC4[C@H](C)CCC([C@H]1C)[C@]42OO3 (some centres undefined) | inconclusive: 2.31 µM [cytotoxic, full curve] | 
CC1OC(OC2C(OC3C(O[C@H]4CC[C@@]5(C)C(CC[C@]6(C)C5C(=O)C=C5C7CC(C)(C)CC(O)[C@]7(C)CC[C@]56C)C4(C)C)OC(C(=O)O)C(O)C3O)OCC(O)C2O)C(O)C(O)C1O (some centres undefined) |  | inactive: 54.7% [at 9.25 µM]
CC(C)C1=CC2=CCC3[C@](C)(CCC[C@@]3(C)C(=O)O)C2CC1O (some centres undefined) | inconclusive: 3.6 µM [cytotoxic, partial curve, poor fit] | 
O=C(NCc1ccc(S(=O)(=O)c2cccc(C(F)(F)F)c2)cc1)c1cnc2[nH]ncc2c1 | active: 0.0118 µM | 
CC(C)C(=O)O[C@@H]1[C@@H](O)[C@@H](O[C@H]2O[C@H](CO)[C@@H](O)[C@H](O)[C@H]2O)O[C@H](CO)[C@H]1O | inactive | 
CCCCCC1CC1CC1CC1CCCCCCCC(=O)O (centres undefined) | inconclusive: 6.32 µM [cytotoxic, partial curve, poor fit] | 
COc1cc(NS(=O)(=O)c2ccc(N)cc2)nc(C)n1 | inactive | 
